The supplement of paper PMC12217912
Some of the results follow. Sequences were assembled here from the parent chain. Values near 0.05 are background.

B1: TEV protease; numbered along this chain (parent)
chain: MGESLFKGPRDYNPISSSICHLTNESDGHTTSLYGIGFGPFIITNKHLFRRNNGTLVVQSLHGVFKVKDTTTLQQHLVDGRDMIIIRMPKDFPPFPQKLKFREPQREERICLVTTNFQTKSMSSMVSDTSCTFPSGDGIFWKHWIQTKDGQCGSPLVSTRDGFIVGIHSASNFTNTNNYFTSVPKNFMELLTNQEAQQWVSGWRLNADSVLWGGHKVFMVKPEEPFQPVKEATQL

Variants of: B1
Assay: raw area under fraction-flipped curve 0-4 h after induction (AUC4h, not background-subtracted), DNA-recorder readout of cleavage of the substrate (dimensionless); higher = more cleavage of the substrate by the protease variant
Conditions: temperature: 34 °C; time window: 0-4 h after rhamnose induction
Protocol: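 In vivo DNA recorder in E. coli TOP10(DE3) ΔrhaA at 34 °C. Each TEVp single-site mutant (parent TEVp 0) is paired with a single-site variant of the 7-mer TEVs (canonical ENLYFQ|S). The substrate sits between flexible linkers in a Bxb1-sfGFP-TEVs-SsrA fusion, so cleavage stabilises Bxb1 and speeds flipping of a recombination array, read by NGS. The value is the raw area under the fraction-flipped curve over 0-4 h after rhamnose induction (AUC4h), with ≥20 reads per time point. It is not background-subtracted; inactive controls average about 0.047.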
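Further: Bxb1 expression induced with 0.2% (w/v) L-rhamnose at OD600 near 0.5, cultures sampled hourly, flipped fraction per protease–substrate barcode pair counted by paired-end Illumina sequencing.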

Row | Variant | area with substrate ENLYFAS | area with substrate ENLYFPS | area with substrate ENLYFCS | area with substrate ENLYFHS | area with substrate ENLYFIS | area with substrate ENLYFMS | area with substrate ENLYFNS | area with substrate ENLYFSS | area with substrate ENLYFTS | area with substrate ENLYFVS
1 | MGESLFKGPRDYNPISSSICHLTNESDGHTTSLYGIGFGPFIITNKHLFRRNNGTLVVQSLHGVFKVKDTTTLQQHLVDGRDMIIIRMPKDFPPFPQKLKFREPQREERICLVTTNFQTKSMSSMVSDTSCTFPSGDGIFWKHWIQTKDGQCGSPLVSTRDGSIVGIHSASNFTNTNNYFTSVPKNFMELLTNQEAQQWVSGWRLNADSVLWGGHKVFMVKPEEPFQPVKEATQL [F163S] | 0.0387 | 0.0541 | – | – | – | – | – | – | – | –
2 | MGESLFKGPRDYNPISSSICHLTNESDGHTTSLYGIGFGPFIITNKHLFRRNNGTLVVQSLHGVFKVKDTTTLQQHLVDGRDMIIIRMPKDFPPFPQKLKFREPQREERICLVTTNFQTKSMSSMVSDTSCTFPSGDGIFWKHWIQTKDGQCGSPLVSTRDGYIVGIHSASNFTNTNNYFTSVPKNFMELLTNQEAQQWVSGWRLNADSVLWGGHKVFMVKPEEPFQPVKEATQL [F163Y] | 0.056 | 0.0655 | 0.0676 | 0.0799 | 0.0539 | 0.0644 | 0.0657 | 0.0584 | 0.0591 | 0.0516
3 | MGESLFKGPRDYNPISSSICHLTNESDGHTTSLYGIGFGPFIITNKHLFRRNNGTLVVQSLHGVFKVKDTTTLQQHLVDGRDMIIIRMPKDFPPFPQKLKFREPQREERICLVTTNFQTKSMSSMVSDTSCTFPSGDGIFWKHWIQTKDGQCLSPLVSTRDGFIVGIHSASNFTNTNNYFTSVPKNFMELLTNQEAQQWVSGWRLNADSVLWGGHKVFMVKPEEPFQPVKEATQL [G153L] | 0.0495 | – | – | – | 0.043 | 0.0589 | 0.0265 | 0.0514 | 0.0459 | 0.0351
4 | MGESLFKGPRDYNPISSSICHLTNESDGHTTSLYGIGFGPFIITNKHLFRRNNGTLVVQSLHGVFKVKDTTTLQQHLVDGRDMIIIRMPKDFPPFPQKLKFREPQREERICLVTTNFQTKSMSSMVSDTSCTFPSGDGIFWKHWIQTKDGQCFSPLVSTRDGFIVGIHSASNFTNTNNYFTSVPKNFMELLTNQEAQQWVSGWRLNADSVLWGGHKVFMVKPEEPFQPVKEATQL [G153F] | 0.0339 | 0.0644 | – | 0.0561 | 0.0511 | 0.0432 | 0.0804 | – | – | –
5 | MGESLFKGPRDYNPISSSICHLTNESDGHTTSLYGIGFGPFIITNKHLFRRNNGTLVVQSLHGVFKVKDTTTLQQHLVDGRDMIIIRMPKDFPPFPQKLKFREPQREERICLVTTNFQTKSMSSMVSDTSCTFPSGDGIFWKHWIQTKDGQCMSPLVSTRDGFIVGIHSASNFTNTNNYFTSVPKNFMELLTNQEAQQWVSGWRLNADSVLWGGHKVFMVKPEEPFQPVKEATQL [G153M] | 0.0392 | – | 0.0377 | 0.046 | – | 0.041 | 0.0573 | 0.0384 | 0.0449 | –
6 | MGESLFKGPRDYNPISSSICHLTNESDGHTTSLYGIGFGPFIITNKHLFRRNNGTLVVQSLHGVFKVKDTTTLQQHLVDGRDMIIIRMPKDFPPFPQKLKFREPQREERICLVTTNFQTKSMSSMVSDTSCTFPSGDGIFWKHWIQTKDGQCGSPLVSPRDGFIVGIHSASNFTNTNNYFTSVPKNFMELLTNQEAQQWVSGWRLNADSVLWGGHKVFMVKPEEPFQPVKEATQL [T159P] | 0.0548 | – | – | – | 0.0563 | 0.057 | – | – | – | –
7 | MGESLFKGPRDYNPISSSICHLTNESDGHTTSLYGIGFGPFIITNKHLFRRNNGTLVVQSLHGVFKVKDTTTLQQHLVDGRDMIIIRMPKDFPPFPQKLKFREPQREERICLVTTNFQTKSMSSMVSDTSCTFPSGDGIFWKHWIQTKDGQCGDPLVSTRDGFIVGIHSASNFTNTNNYFTSVPKNFMELLTNQEAQQWVSGWRLNADSVLWGGHKVFMVKPEEPFQPVKEATQL [S154D] | 0.0528 | – | 0.0425 | – | 0.0375 | 0.0464 | – | – | 0.0531 | –
8 | MGESLFKGPRDYNPISSSICHLTNESDGHTTSLYGIGFGPFIITNKHLFRRNNGTLVVQSLHGVFKVKDTTTLQQHLVDGRDMIIIRMPKDFPPFPQKLKFREPQREERICLVTTNFQTKSMSSMVSDTSCTFPSGDGIFWKHWIQTKDGQCGVPLVSTRDGFIVGIHSASNFTNTNNYFTSVPKNFMELLTNQEAQQWVSGWRLNADSVLWGGHKVFMVKPEEPFQPVKEATQL [S154V] | 0.0572 | 0.0701 | – | 0.0765 | 0.045 | 0.0554 | 0.0577 | – | – | –
9 | MGESLFKGPRDYNPISSSICHLTNESDGHTTSLYGIGFGPFIITNKHLFRRNNGTLVVQSLHGVFKVKDTTTLQQHLVDGRDMIIIRMPKDFPPFPQKLKFREPQREERICLVTTNFQTKSMSSMVSDTSCTFPSGDGIFWKHWIQTKDGQCGSPLVSTRDGFIIGIHSASNFTNTNNYFTSVPKNFMELLTNQEAQQWVSGWRLNADSVLWGGHKVFMVKPEEPFQPVKEATQL [V165I] | 0.0617 | – | – | – | 0.0658 | – | – | 0.0824 | – | –
10 | MGESLFKGPRDYNPISSSICHLTNESDGHTTSLYGIGFGPFIITNKHLFRRNNGTLVVQSLHGVFKVKDTTTLQQHLVDGRDMIIIRMPKDFPPFPQKLKFREPQREERICLVTTNFQTKSMSSMVSDTSCTFPSGDGIFWKHWIQTKDGQCGSGLVSTRDGFIVGIHSASNFTNTNNYFTSVPKNFMELLTNQEAQQWVSGWRLNADSVLWGGHKVFMVKPEEPFQPVKEATQL [P155G] | 0.0584 | 0.0533 | 0.0562 | – | 0.0449 | 0.0445 | 0.0673 | 0.051 | 0.0414 | –

Same assay, conditions: temperature: 34 °C; time window: 0-4 h after rhamnose induction

Row | Variant | area with substrate ENLYFWS | area with substrate ENLYFYS | area with substrate ENLYFES | area with substrate ENLYFFS | area with substrate ENLYFKS | area with substrate ENLYFLS | area with substrate ENLYFRS | area with substrate ENLYFGS | area with substrate ENLYFDS
11 | MGESLFKGPRDYNPISSSICHLTNESDGHTTSLYGIGFGPFIITNKHLFRRNNGTLVVQSLHGVFKVKDTTTLQQHLVDGRDMIIIRMPKDFPPFPQKLKFREPQREERICLVTTNFQTKSMSSMVSDTSCTFPSGDGIFWKHWIQTKDGQCGSPLVSTRDGYIVGIHSASNFTNTNNYFTSVPKNFMELLTNQEAQQWVSGWRLNADSVLWGGHKVFMVKPEEPFQPVKEATQL [F163Y] | 0.0761 | 0.0481 | – | – | – | – | – | – | –
12 | MGESLFKGPRDYNPISSSICHLTNESDGHTTSLYGIGFGPFIITNKHLFRRNNGTLVVQSLHGVFKVKDTTTLQQHLVDGRDMIIIRMPKDFPPFPQKLKFREPQREERICLVTTNFQTKSMSSMVSDTSCTFPSGDGIFWKHWIQTKDGQCLSPLVSTRDGFIVGIHSASNFTNTNNYFTSVPKNFMELLTNQEAQQWVSGWRLNADSVLWGGHKVFMVKPEEPFQPVKEATQL [G153L] | 0.0459 | 0.0443 | 0.0632 | 0.0533 | 0.0641 | 0.0274 | 0.0363 | – | –
13 | MGESLFKGPRDYNPISSSICHLTNESDGHTTSLYGIGFGPFIITNKHLFRRNNGTLVVQSLHGVFKVKDTTTLQQHLVDGRDMIIIRMPKDFPPFPQKLKFREPQREERICLVTTNFQTKSMSSMVSDTSCTFPSGDGIFWKHWIQTKDGQCFSPLVSTRDGFIVGIHSASNFTNTNNYFTSVPKNFMELLTNQEAQQWVSGWRLNADSVLWGGHKVFMVKPEEPFQPVKEATQL [G153F] | – | 0.0505 | – | 0.0615 | – | – | 0.0491 | – | –
14 | MGESLFKGPRDYNPISSSICHLTNESDGHTTSLYGIGFGPFIITNKHLFRRNNGTLVVQSLHGVFKVKDTTTLQQHLVDGRDMIIIRMPKDFPPFPQKLKFREPQREERICLVTTNFQTKSMSSMVSDTSCTFPSGDGIFWKHWIQTKDGQCMSPLVSTRDGFIVGIHSASNFTNTNNYFTSVPKNFMELLTNQEAQQWVSGWRLNADSVLWGGHKVFMVKPEEPFQPVKEATQL [G153M] | – | 0.0496 | 0.0512 | 0.0411 | – | – | 0.0473 | 0.0494 | –
15 | MGESLFKGPRDYNPISSSICHLTNESDGHTTSLYGIGFGPFIITNKHLFRRNNGTLVVQSLHGVFKVKDTTTLQQHLVDGRDMIIIRMPKDFPPFPQKLKFREPQREERICLVTTNFQTKSMSSMVSDTSCTFPSGDGIFWKHWIQTKDGQCGSPLVSPRDGFIVGIHSASNFTNTNNYFTSVPKNFMELLTNQEAQQWVSGWRLNADSVLWGGHKVFMVKPEEPFQPVKEATQL [T159P] | – | 0.0576 | – | – | – | 0.0604 | – | – | 0.0547
16 | MGESLFKGPRDYNPISSSICHLTNESDGHTTSLYGIGFGPFIITNKHLFRRNNGTLVVQSLHGVFKVKDTTTLQQHLVDGRDMIIIRMPKDFPPFPQKLKFREPQREERICLVTTNFQTKSMSSMVSDTSCTFPSGDGIFWKHWIQTKDGQCGDPLVSTRDGFIVGIHSASNFTNTNNYFTSVPKNFMELLTNQEAQQWVSGWRLNADSVLWGGHKVFMVKPEEPFQPVKEATQL [S154D] | – | 0.0541 | 0.0467 | – | 0.0628 | 0.0527 | – | 0.0473 | –
17 | MGESLFKGPRDYNPISSSICHLTNESDGHTTSLYGIGFGPFIITNKHLFRRNNGTLVVQSLHGVFKVKDTTTLQQHLVDGRDMIIIRMPKDFPPFPQKLKFREPQREERICLVTTNFQTKSMSSMVSDTSCTFPSGDGIFWKHWIQTKDGQCGVPLVSTRDGFIVGIHSASNFTNTNNYFTSVPKNFMELLTNQEAQQWVSGWRLNADSVLWGGHKVFMVKPEEPFQPVKEATQL [S154V] | – | – | 0.0676 | 0.0759 | 0.0584 | – | – | – | –
18 | MGESLFKGPRDYNPISSSICHLTNESDGHTTSLYGIGFGPFIITNKHLFRRNNGTLVVQSLHGVFKVKDTTTLQQHLVDGRDMIIIRMPKDFPPFPQKLKFREPQREERICLVTTNFQTKSMSSMVSDTSCTFPSGDGIFWKHWIQTKDGQCGSPLVSTRDGFIIGIHSASNFTNTNNYFTSVPKNFMELLTNQEAQQWVSGWRLNADSVLWGGHKVFMVKPEEPFQPVKEATQL [V165I] | 0.0509 | – | 0.0515 | 0.0679 | – | – | – | 0.0659 | 0.063
19 | MGESLFKGPRDYNPISSSICHLTNESDGHTTSLYGIGFGPFIITNKHLFRRNNGTLVVQSLHGVFKVKDTTTLQQHLVDGRDMIIIRMPKDFPPFPQKLKFREPQREERICLVTTNFQTKSMSSMVSDTSCTFPSGDGIFWKHWIQTKDGQCGSGLVSTRDGFIVGIHSASNFTNTNNYFTSVPKNFMELLTNQEAQQWVSGWRLNADSVLWGGHKVFMVKPEEPFQPVKEATQL [P155G] | 0.0535 | – | 0.0747 | 0.0573 | – | – | – | 0.0598 | –
